In the supplement of paper PMC8728848:
The other results are listed elsewhere or left out.

Legend:
Assay in all cases: glycan array binding signal (z-score within array); higher = stronger binding
Conditions in all cases: glycan notation: IUPAC condensed, linker removed
[1] = target: GlcNAc(b1-6)Gal(b1-4)GlcNAc
In short: (§1)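 Arrays were curated from the Consortium for Functional Glycomics database, 3228 in total, and kept only where the protein sequence was available. Binding is expressed as a within-array Z-score. This score was averaged across arrays of the same protein sequence at different concentrations or buffers and across linkers, and negative values can be read as non-binding.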

GlcNAc(b1-6)GalNAc = target: GlcNAc(b1-6)GalNAc
In short: as §1

GlcNAc3Prop(b1-4)GlcNAc = target: GlcNAc3Prop(b1-4)GlcNAc
In short: as §1

[2] = target: GlcNAc6S(b1-3)Gal(b1-4)GlcNAc
In short: as §1

Kdn(a2-3)Gal(b1-3)GalNAc = target: Kdn(a2-3)Gal(b1-3)GalNAc
In short: as §1

Kdn(a2-3)Gal(b1-3)GlcNAc = target: Kdn(a2-3)Gal(b1-3)GlcNAc
In short: as §1

Kdn(a2-3)Gal(b1-4)Glc = target: Kdn(a2-3)Gal(b1-4)Glc
In short: as §1

Kdn(a2-3)Gal(b1-4)GlcNAc = target: Kdn(a2-3)Gal(b1-4)GlcNAc
In short: as §1

[3] = target: Kdn(a2-3)Gal(b1-4)[Fuc(a1-3)]GlcNAc
In short: as §1

Kdn(a2-6)Gal(b1-4)GlcNAc = target: Kdn(a2-6)Gal(b1-4)GlcNAc
In short: as §1

[4] = target: Man(a1-2)Man(a1-2)Man(a1-3)Man
In short: as §1

[5] = target: Man(a1-2)Man(a1-2)Man(a1-6)[Man(a1-3)]Man
In short: as §1

Man(a1-2)Man(a1-3)Man = target: Man(a1-2)Man(a1-3)Man
In short: as §1

[6] = target: Man(a1-2)Man(a1-3)[Man(a1-2)Man(a1-6)]Man
In short: as §1

[7] = target: Man(a1-2)Man(a1-3)[Man(a1-2)Man(a1-6)]Man(a1-6)[Man(a1-2)Man(a1-2)Man(a1-3)]Man
In short: as §1

[8] = target: Man(a1-2)Man(a1-3)[Man(a1-2)Man(a1-6)]Man(a1-6)[Man(a1-2)Man(a1-2)Man(a1-3)]Man(b1-4)GlcNAc(b1-4)GlcNAc
In short: as §1

[9] = target: Man(a1-2)Man(a1-3)[Man(a1-6)]Man(a1-6)[Man(a1-2)Man(a1-3)]Man(b1-4)GlcNAc(b1-4)GlcNAc
In short: as §1

[10] = target: Man(a1-2)Man(a1-6)[Man(a1-3)]Man(a1-6)[Man(a1-2)Man(a1-2)Man(a1-3)]Man
In short: as §1

[11] = target: Man(a1-2)Man(a1-6)[Man(a1-3)]Man(a1-6)[Man(a1-2)Man(a1-2)Man(a1-3)]Man(b1-4)GlcNAc(b1-4)GlcNAc
In short: as §1

Man(a1-3)[Man(a1-6)]Man = target: Man(a1-3)[Man(a1-6)]Man
In short: as §1

[12] = target: Man(a1-3)[Man(a1-6)]Man(a1-6)[Man(a1-2)Man(a1-3)]Man(b1-4)GlcNAc(b1-4)GlcNAc
In short: as §1

[13] = target: Man(a1-3)[Man(a1-6)]Man(a1-6)[Man(a1-3)]Man
In short: as §1

[14] = target: Man(a1-3)[Man(a1-6)]Man(a1-6)[Man(a1-3)]Man(b1-4)GlcNAc(b1-4)GlcNAc
In short: as §1

[15] = target: Man(a1-3)[Man(a1-6)]Man(b1-4)GlcNAc(b1-4)GlcNAc
In short: as §1

[16] = target: Man(a1-3)[Man(a1-6)]Man(b1-4)GlcNAc(b1-4)[Fuc(a1-6)]GlcNAc
In short: as §1

Man(a1-6)Man = target: Man(a1-6)Man
In short: as §1

Man(b1-4)GlcNAc = target: Man(b1-4)GlcNAc
In short: as §1

Neu5Ac(a2-3)Gal = target: Neu5Ac(a2-3)Gal
In short: as §1

[17] = target: Neu5Ac(a2-3)Gal(b1-3)GalNAc
In short: as §1

[18] = target: Neu5Ac(a2-3)Gal(b1-3)GalNAc(b1-3)Gal(a1-4)Gal(b1-4)Glc
In short: as §1

[19] = target: Neu5Ac(a2-3)Gal(b1-3)GalNAc(b1-4)[Neu5Ac(a2-3)]Gal(b1-4)Glc
In short: as §1

[20] = target: Neu5Ac(a2-3)Gal(b1-3)GalNAc(b1-4)[Neu5Ac(a2-8)Neu5Ac(a2-3)]Gal(b1-4)Glc
In short: as §1

[21] = target: Neu5Ac(a2-3)Gal(b1-3)GalNAc6S
In short: as §1

[22] = target: Neu5Ac(a2-3)Gal(b1-3)GlcNAc
In short: as §1

[23] = target: Neu5Ac(a2-3)Gal(b1-3)GlcNAc(b1-2)Man(a1-3)[GlcNAc(b1-4)][Neu5Ac(a2-3)Gal(b1-3)GlcNAc(b1-2)Man(a1-6)]Man(b1-4)GlcNAc(b1-4)GlcNAc
In short: as §1

[24] = target: Neu5Ac(a2-3)Gal(b1-3)GlcNAc(b1-3)Gal(b1-3)GlcNAc
In short: as §1

[25] = target: Neu5Ac(a2-3)Gal(b1-3)GlcNAc(b1-3)Gal(b1-4)GlcNAc
In short: as §1

[26] = target: Neu5Ac(a2-3)Gal(b1-3)GlcNAc(b1-3)GalNAc
In short: as §1

[27] = target: Neu5Ac(a2-3)Gal(b1-3)GlcNAc(b1-6)GalNAc
In short: as §1

[28] = target: Neu5Ac(a2-3)Gal(b1-3)GlcNAc6S
In short: as §1

[29] = target: Neu5Ac(a2-3)Gal(b1-3)[Fuc(a1-4)]GlcNAc
In short: as §1

[30] = target: Neu5Ac(a2-3)Gal(b1-3)[Fuc(a1-4)]GlcNAc(b1-3)Gal(b1-3)[Fuc(a1-4)]GlcNAc
In short: as §1

[31] = target: Neu5Ac(a2-3)Gal(b1-3)[Fuc(a1-4)]GlcNAc(b1-3)Gal(b1-4)[Fuc(a1-3)]GlcNAc
In short: as §1

[32] = target: Neu5Ac(a2-3)Gal(b1-3)[Neu5Ac(a2-3)Gal(b1-4)]GlcNAc
In short: as §1

[33] = target: Neu5Ac(a2-3)Gal(b1-3)[Neu5Ac(a2-6)]GalNAc
In short: as §1

B1: SalT (Orysata sativa) (protein)
chain: MTLVKIGLWGGNGGSAQDISVPPKKLLGVTIYSSDAIRSIAFNYIGVDGQEYAIGPWGGGEGTSTEIKLGSSEHIKEISGTHGPVYDLADIVTYLKIVTSANNTYEAGVPNGKEFSIPLQDSGHVVGFFGRSGTLIDAIGIYVHPILEQKLISEEDLNSAVDHHHHHH
glycan array binding signal (z-score) [1]: -0.306 | glycan array binding signal (z-score) (GlcNAc(b1-6)GalNAc): -0.309 | glycan array binding signal (z-score) (GlcNAc3Prop(b1-4)GlcNAc): -0.309 | glycan array binding signal (z-score) [2]: -0.308 | glycan array binding signal (z-score) (Kdn(a2-3)Gal(b1-3)GalNAc): -0.211 | glycan array binding signal (z-score) (Kdn(a2-3)Gal(b1-3)GlcNAc): -0.306 | glycan array binding signal (z-score) (Kdn(a2-3)Gal(b1-4)Glc): -0.306 | glycan array binding signal (z-score) (Kdn(a2-3)Gal(b1-4)GlcNAc): -0.309 | glycan array binding signal (z-score) [3]: -0.302 | glycan array binding signal (z-score) (Kdn(a2-6)Gal(b1-4)GlcNAc): -0.31 | glycan array binding signal (z-score) [4]: -0.3 | glycan array binding signal (z-score) [5]: -0.294 | glycan array binding signal (z-score) (Man(a1-2)Man(a1-3)Man): -0.307 | glycan array binding signal (z-score) [6]: -0.295 | glycan array binding signal (z-score) [7]: -0.304 | glycan array binding signal (z-score) [8]: 2.07 | glycan array binding signal (z-score) [9]: 0.177 | glycan array binding signal (z-score) [10]: -0.282 | glycan array binding signal (z-score) [11]: 1.35 | glycan array binding signal (z-score) (Man(a1-3)[Man(a1-6)]Man): -0.235 | glycan array binding signal (z-score) [12]: 5.46 | glycan array binding signal (z-score) [13]: -0.273 | glycan array binding signal (z-score) [14]: 3.62 | glycan array binding signal (z-score) [15]: 4.94 | glycan array binding signal (z-score) [16]: 3.1 | glycan array binding signal (z-score) (Man(a1-6)Man): -0.307 | glycan array binding signal (z-score) (Man(b1-4)GlcNAc): -0.312 | glycan array binding signal (z-score) (Neu5Ac(a2-3)Gal): -0.309 | glycan array binding signal (z-score) [17]: -0.308 | glycan array binding signal (z-score) [18]: -0.311 | glycan array binding signal (z-score) [19]: -0.304 | glycan array binding signal (z-score) [20]: -0.308 | glycan array binding signal (z-score) [21]: -0.31 | glycan array binding signal (z-score) [22]: -0.303 | glycan array binding signal (z-score) [23]: -0.125 | glycan array binding signal (z-score) [24]: -0.31 | glycan array binding signal (z-score) [25]: -0.309 | glycan array binding signal (z-score) [26]: -0.308 | glycan array binding signal (z-score) [27]: -0.306 | glycan array binding signal (z-score) [28]: -0.305 | glycan array binding signal (z-score) [29]: -0.311 | glycan array binding signal (z-score) [30]: -0.305 | glycan array binding signal (z-score) [31]: -0.303 | glycan array binding signal (z-score) [32]: -0.307 | glycan array binding signal (z-score) [33]: -0.277
